Data taken from US20090291088A1 (Biogen, published 2009).

Biological target: T1, human IGF-1R(1-903)-Fc (human, UniProt P08069 31-933)
T1 construct: Made by Biogen Idec; Multimerises through IGF-1R and Fc; also called hIGF-1R-Fc; IGF-1R-Fc; not shown: C-terminal human IgG1-Fc tag
Assay: ELISA, titration of IGF-1 His with and without saturating M13-C06

fold loss in affinity in the presence of M13-C06: ~50 fold
B1: human IGF-1 His (ligand)
chain: not shown
